Assay results reported in the supplement of paper PMC4723716.
± gives the uncertainty stated by the source. Whole data set: some 9,900 compounds, median “viability index relative to DMSO control” near 1, cut for the lowest 2% near 0.85. The list shows a part of the results.

system: Plasmodium falciparum NF54 stage V gametocytes; assay: viability index relative to DMSO control (fraction); higher = less gametocyte killing; conditions: 2.5 µM, library set: Broad Institute DOS, incubation time: 72 h
Summary of the method: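 In 1,536-well plates, 10 µl of serum-free medium holding P. falciparum NF54 stage V gametocytes (0.75% gametocytemia, 1.25% hematocrit) received compound at 2.5 µM for 72 hr at 37°C in low oxygen. After one to two hours with 3 µl of 2.5 µM MitoTracker Red CMXRos containing 0.13% saponin, red particles of 20–70 µm2 were counted in a single field per well. Viability index is reported as the particle count over the plate mean of wells treated with solvent only.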

Row | Structure (SMILES) | viability index
1 | COc1ccccc1CN1[C@@H](CO)[C@@H]2c3ccccc3N(C(=O)C3CCOCC3)C[C@@H]21 | 1.07 ± 0.1
2 | CS(=O)(=O)N1[C@H](CO)[C@H](c2ccc(-c3ccccc3F)cc2)[C@@H]1C#N | 1.11 ± 0.028
3 | O=C(CCN1CCCCC1)N[C@@H]1CC[C@@H](CCn2cc(-c3cccc(F)c3)nn2)O[C@H]1CO | 1.04 ± 0.15
4 | CN(C)CC(=O)N1[C@H](CO)[C@@H](c2ccccc2-c2ccc(C(=O)N(C)C)cc2)[C@@H]1C#N | 1.11 ± 0.096
5 | C[C@@H]1CCCCO[C@H](CN(C)Cc2ccc(C(F)(F)F)cc2)[C@H](C)CN([C@H](C)CO)C(=O)c2cc(NC(=O)Nc3cccc4ccccc34)ccc2O1 | 1.06 ± 0.029
6 | C[C@H](CO)N1C[C@H](C)[C@@H](CN(C)S(=O)(=O)c2ccc(-n3cccn3)cc2)OCc2cn(nn2)CCCC1=O | 1.008 ± 0.0025
7 | COc1ccc2c3c([C@H](CO)N(C)C[C@]33CN(C3)C(=O)C3CCC3)n(C)c2c1 | 0.991 ± 0.062
8 | O=C(C[C@@H]1CC[C@@H]2[C@H](COC[C@@H](O)CN2Cc2nccs2)O1)N1CCC(Cc2ccccc2)CC1 | 1.08 ± 0.048
9 | CO[C@@H]1CN(C)C(=O)c2ccc(NS(=O)(=O)CC(F)(F)F)cc2OC[C@H](C)N(C(=O)NC(C)C)C[C@@H]1C | 1.01 ± 0.024
10 | N#C[C@H]1[C@H](c2ccccc2C2=CCCCC2)[C@H](CO)N1C(=O)CN1CCOCC1 | 1.14 ± 0.13
11 | CN1C(=O)c2cc(NC(=O)Nc3ccccc3Cl)ccc2OC[C@H]2O[C@H](CC(=O)O)CC[C@H]21 | 1.03 ± 0.093
12 | CN(C)C(=O)c1cccc(-c2ccc([C@@H]3[C@H]4CN(CC5CCOCC5)CCCCN4[C@H]3CO)cc2)c1 | 1.02 ± 0.044
13 | CN1C(=O)c2cc(NC(=O)Nc3ccccc3Cl)ccc2OC[C@@H]2O[C@@H](CC(=O)O)CC[C@H]21 | 0.986 ± 0.11
14 | COc1cccc(S(=O)(=O)Nc2ccc3c(c2)C(=O)N(C)[C@H]2CC[C@@H](CC(=O)NCC4CCCCC4)O[C@H]2CO3)c1 | 1.02 ± 0.13
15 | O=C(C[C@H]1CC[C@@H]2[C@H](COC[C@@H](O)CN2C(=O)c2cccnc2)O1)NCC1CC1 | 1.09 ± 0.088
16 | Fc1cccc(-c2ccc([C@H]3[C@H]4CNC[C@@H]3N4CC3CCOCC3)cc2)c1 | 1.02 ± 0.0019
17 | Cc1noc(C)c1NC(=O)N1C[C@@H](O)COC[C@@H]2O[C@@H](CC(=O)N[C@H]3CCN(Cc4ccccc4)C3)CC[C@H]21 | 1.01 ± 0.017
18 | C[C@@H]1CCCCO[C@H](CN(C)C(=O)Nc2ccc3c(c2)OCO3)[C@@H](C)CN([C@H](C)CO)C(=O)c2cc(NS(=O)(=O)c3ccc(F)cc3)ccc2O1 | 1.09 ± 0.091
19 | COc1ccc(C[C@@H]2CCn3nncc3COC[C@@H](CC(C)C)NC2=O)cc1 | 0.973 ± 0.026
20 | COCC#Cc1ccc([C@@H]2[C@H]3CN(C(=O)Nc4ccccc4F)CC(=O)N3[C@H]2CO)cc1 | 1.07 ± 0.012
21 | Cc1noc(C)c1S(=O)(=O)N(C)C[C@H]1OCCCC[C@H](C)Oc2ccc(NC(=O)CCC(F)(F)F)cc2C(=O)N([C@@H](C)CO)C[C@H]1C | 1.02 ± 0.078
22 | O=C(c1cnccn1)N1CC(=O)N2[C@@H](CO)[C@H](c3ccc(C#CC4CC4)cc3)[C@@H]2C1 | 1.02 ± 0.042
23 | CO[C@H]1CC[C@@H]2CCOc3ccc(C#N)cc3C(=O)N(C)C[C@H](c3ccccc3)CC(=O)N(C)C[C@@H]1O2 | 1.05 ± 0.084

Row | Structure (SMILES) | viability index
24 | Cc1ccccc1-c1ccc2c(c1)O[C@H](CN(C)C(=O)Nc1ccc(C(F)(F)F)cc1)[C@@H](C)CN([C@@H](C)CO)S2(=O)=O | 0.878 ± 0.12
25 | COc1ccc(NC(=O)Nc2cccc3c2O[C@@H](CN(C)Cc2ccc(C(=O)O)cc2)[C@H](C)CN([C@H](C)CO)C3=O)cc1 | 0.981 ± 0.087
26 | CO[C@H]1CN(C)C(=O)c2ccc(NC(C)=O)cc2OC[C@H](C)N(Cc2cccc(F)c2)C[C@H]1C | 1.08 ± 0.037
27 | C/C=C/c1ccc([C@H]2[C@@H](CO)N(CC3CC3)C23CN(C(=O)c2ccc4c(c2)OCO4)C3)cc1 | 1.06 ± 0.014
28 | CS(=O)(=O)N1[C@@H]2CNC[C@H]1[C@@H]2c1ccc(-c2ccccc2)cc1 | 1.03 ± 0.056
29 | O=C(C[C@H]1CC[C@H]2NC[C@H](O)COC[C@@H]2O1)N1CCc2ccccc2C1 | 0.988 ± 0.084
30 | CCCNC(=O)C[C@H]1CC[C@H]2[C@@H](COc3ccc(NC(=O)CC)cc3C(=O)N2C)O1 | 1.06 ± 0.048
31 | CNC[C@H]1Oc2ccc(NC(=O)NC3CCCCC3)cc2CC(=O)N([C@H](C)CO)C[C@@H]1C | 1.09 ± 0.053
32 | N#C[C@@H]1[C@H](c2ccc(C3=CCCCC3)cc2)[C@H](CO)N1S(=O)(=O)c1ccccc1 | 1.09 ± 0.018
33 | COc1ccc(NC(=O)N2C[C@H]3[C@@H](c4ccccc42)[C@H](CO)N3Cc2ccccn2)cc1 | 0.918 ± 0.049
34 | Cc1ccc(S(=O)(=O)N[C@@H]2CC[C@@H](CC(=O)NCc3ccncn3)O[C@@H]2CO)cc1 | 0.948 ± 0.11
35 | C[C@H](CO)N1C[C@H](C)[C@@H](CN(C)C(=O)Nc2ccc3c(c2)OCCO3)OCc2cnnn2CCCC1=O | 1.0445 ± 0.00048
36 | CCS(=O)(=O)Nc1ccc2c(c1)C(=O)N(C)[C@H]1CC[C@H](CC(=O)NCCCN3CCOCC3)O[C@@H]1CO2 | 1.03 ± 0.07
37 | O=C(NCC[C@H]1CC[C@H](NC(=O)C2CCOCC2)[C@H](CO)O1)c1cc(Cl)cc(Cl)c1 | 1.072 ± 0.0018
38 | COc1ccc(NC(=O)N(C)C[C@@H]2OCc3cnnn3CCCC(=O)N([C@H](C)CO)C[C@H]2C)c(OC)c1 | 1.08 ± 0.063
39 | CC[C@@H]1C/C=C\C[C@H](C(C)C)NC(=O)CCC(=O)N1 | 0.969 ± 0.16
40 | O=C(C[C@@H]1C[C@H]2c3cc(NS(=O)(=O)c4ccc(F)cc4)ccc3O[C@H]2[C@@H](CO)O1)NCc1cccnc1 | 1.12 ± 0.071
41 | COc1ccc2c3c([C@@H](CO)N(Cc4ccccc4)C[C@]33CN(C3)C(=O)c3ccccc3F)n(C)c2c1 | 0.952 ± 0.048
42 | CCS(=O)(=O)N1C[C@@]2(C1)CN([C@@H](CO)c1[nH]c3cc(OC)ccc3c21)S(=O)(=O)c1cccc(OC)c1 | 1.03 ± 0.068
43 | CO[C@H]1CN(C)C(=O)c2cc(NC(=O)c3ccc4c(c3)OCO4)ccc2OC[C@H](C)N(CCC(F)(F)F)C[C@H]1C | 1.12 ± 0.035
44 | C[C@@H]1CCCCO[C@@H](CN(C)Cc2ccc3c(c2)OCO3)[C@@H](C)CN([C@H](C)CO)C(=O)c2cc(NS(=O)(=O)c3cn(C)cn3)ccc2O1 | 0.968 ± 0.067
45 | COc1ccccc1NC(=O)N1C[C@@H]2N[C@H](C1)[C@@H]2c1ccc(-c2cccc(C#N)c2)cc1 | 1.06 ± 0.077
46 | O=C(C[C@@H]1CC[C@@H]2[C@H](COC[C@H](O)CN2C(=O)c2cccnc2)O1)NCC1CC1 | 1.12 ± 0.041

Row | Structure (SMILES) | viability index
47 | CN(C)C(=O)c1cccc(-c2ccc3c(c2)[C@H]2[C@H](CCN2Cc2nccs2)[C@@H](CO)N3)c1 | 1.18 ± 0.023
48 | O=C(NCCc1ccncc1)[C@H]1[C@H](CO)[C@H]2Cn3c(ccc(-c4ccccc4)c3=O)[C@H]2N1C(=O)C1CC1 | 1.034 ± 0.0004
49 | COc1cccc(C#Cc2ccc([C@H]3[C@@H](CO)N(C(=O)c4ccccn4)[C@H]3C#N)cc2)c1 | 0.8087 ± 0.0043
50 | C[C@@H]1CCCCO[C@H](CN(C)CC2CCCCC2)[C@@H](C)CN([C@H](C)CO)C(=O)c2cc(NC(=O)Nc3ccc(C(F)(F)F)cc3)ccc2O1 | 1.07 ± 0.029
51 | COc1ccc(S(=O)(=O)N(C)C[C@@H]2Oc3ccc(NC(=O)Nc4ccc(C(F)(F)F)cc4)cc3C(=O)N([C@H](C)CO)C[C@@H]2C)cc1 | 1.03 ± 0.039
52 | C[C@H](CO)N1C[C@H](C)[C@H](CN(C)S(=O)(=O)c2cccc(F)c2)Oc2ncc(C#CC3(O)CCCC3)cc2C1=O | 1.04 ± 0.06
53 | C[C@@H]1CN([C@@H](C)CO)C(=O)c2cc(NS(=O)(=O)c3cn(C)cn3)ccc2O[C@H]1CN(C)S(=O)(=O)c1ccc(F)cc1 | 1.06 ± 0.038
54 | COCC(=O)Nc1ccc2c(c1)C(=O)N(C)[C@H]1CC[C@@H](CC(=O)N3CCc4ccccc4C3)O[C@@H]1CO2 | 0.948 ± 0.036
55 | CCC(=O)N1C[C@H](O)COC[C@H]2O[C@H](CC(=O)NC)CC[C@@H]21 | 1.155 ± 0.0098
56 | C[C@@H]1CN([C@H](C)CO)C(=O)c2ccccc2-c2ccccc2CO[C@@H]1CN(C)Cc1cccc2c1OCCCO2 | 0.941 ± 0.019
57 | CO[C@H](CN(C)S(=O)(=O)c1cn(C)cn1)[C@@H](C)CN(C(=O)Nc1ccc(C(F)(F)F)cc1)[C@@H](C)CO | 1.01 ± 0.036
58 | O=C(c1ccc(F)cc1)N1CC(=O)N2[C@H](CO)[C@H](c3ccc(C#CCC4CCCC4)cc3)[C@@H]2C1 | 1.03 ± 0.053
59 | C[C@@H]1CCCCO[C@@H](CN(C)C(=O)c2ccncc2)[C@@H](C)CN([C@@H](C)CO)C(=O)c2cc(NS(=O)(=O)c3cccs3)ccc2O1 | 1.04 ± 0.14
60 | COc1cccc(C(=O)Nc2ccc3c(c2)C(=O)N(C)[C@@H]2CC[C@H](CC(=O)NCc4ccc(F)cc4)O[C@H]2CO3)c1 | 1.08 ± 0.15
61 | COc1ccc2c3c([C@@H](CO)N(C[C@]33CN(Cc4ccc(Cl)cc4)C3)C(C)=O)n(C)c2c1 | 0.938 ± 0.026
62 | CO[C@H]1CC[C@@H]2CCOc3c(C#N)cccc3C(=O)N(C)C[C@H](c3ccccc3)CC(=O)N(C)C[C@@H]1O2 | 1.14 ± 0.013
63 | C[C@@H]1CN([C@H](C)CO)C(=O)c2cccc(NC(=O)Nc3ccc4c(c3)OCO4)c2O[C@@H]1CN(C)S(C)(=O)=O | 0.992 ± 0.087
64 | CNC(=O)C[C@@H]1CC[C@H]2[C@@H](COc3ccc(NC(=O)c4ccccc4F)cc3C(=O)N2C)O1 | 1.12 ± 0.049
65 | C/C=C/c1ccccc1[C@@H]1[C@H](C#N)N(C(=O)c2cccnc2)[C@H]1CO | 1.14 ± 0.071
66 | C[C@@H]1CN([C@H](C)CO)C(=O)c2cc(C3=CCCCC3)cnc2O[C@H]1CN(C)S(=O)(=O)c1cn(C)cn1 | 0.979 ± 0.075
67 | CN(C)CC(=O)N1[C@H](C#N)[C@H](c2ccccc2-c2ccc(C(=O)N(C)C)cc2)[C@H]1CO | 1.14 ± 0.12
68 | CC(C)NC(=O)Nc1ccc2c(c1)C(=O)N([C@@H](C)CO)C[C@@H](C)[C@@H](CN(C)C(=O)C1CCCCC1)OCCCC[C@@H](C)O2 | 1.09 ± 0.069
69 | COc1ccc(-c2ccc3n(c2=O)C[C@H]2[C@H](CO)[C@@H](C(=O)N(C)C)[C@@H]3N2Cc2cncnc2)cc1 | 0.989 ± 0.021
